Among all 310,000 compounds or so, about 2,200 (0.71%) showed an effect of 50% or more. The effect is printed as a negative number. The list shows a part of the results.
Each compound was assayed against human ether-à-go-go-related gene (hERG) potassium channel (human, UniProt Q12809) (assay: primary screen, population patch clamp on CHO cells stably expressing hERG).
Chain of human ether-à-go-go-related gene (hERG) potassium channel (Q12809 whole entry, looked up): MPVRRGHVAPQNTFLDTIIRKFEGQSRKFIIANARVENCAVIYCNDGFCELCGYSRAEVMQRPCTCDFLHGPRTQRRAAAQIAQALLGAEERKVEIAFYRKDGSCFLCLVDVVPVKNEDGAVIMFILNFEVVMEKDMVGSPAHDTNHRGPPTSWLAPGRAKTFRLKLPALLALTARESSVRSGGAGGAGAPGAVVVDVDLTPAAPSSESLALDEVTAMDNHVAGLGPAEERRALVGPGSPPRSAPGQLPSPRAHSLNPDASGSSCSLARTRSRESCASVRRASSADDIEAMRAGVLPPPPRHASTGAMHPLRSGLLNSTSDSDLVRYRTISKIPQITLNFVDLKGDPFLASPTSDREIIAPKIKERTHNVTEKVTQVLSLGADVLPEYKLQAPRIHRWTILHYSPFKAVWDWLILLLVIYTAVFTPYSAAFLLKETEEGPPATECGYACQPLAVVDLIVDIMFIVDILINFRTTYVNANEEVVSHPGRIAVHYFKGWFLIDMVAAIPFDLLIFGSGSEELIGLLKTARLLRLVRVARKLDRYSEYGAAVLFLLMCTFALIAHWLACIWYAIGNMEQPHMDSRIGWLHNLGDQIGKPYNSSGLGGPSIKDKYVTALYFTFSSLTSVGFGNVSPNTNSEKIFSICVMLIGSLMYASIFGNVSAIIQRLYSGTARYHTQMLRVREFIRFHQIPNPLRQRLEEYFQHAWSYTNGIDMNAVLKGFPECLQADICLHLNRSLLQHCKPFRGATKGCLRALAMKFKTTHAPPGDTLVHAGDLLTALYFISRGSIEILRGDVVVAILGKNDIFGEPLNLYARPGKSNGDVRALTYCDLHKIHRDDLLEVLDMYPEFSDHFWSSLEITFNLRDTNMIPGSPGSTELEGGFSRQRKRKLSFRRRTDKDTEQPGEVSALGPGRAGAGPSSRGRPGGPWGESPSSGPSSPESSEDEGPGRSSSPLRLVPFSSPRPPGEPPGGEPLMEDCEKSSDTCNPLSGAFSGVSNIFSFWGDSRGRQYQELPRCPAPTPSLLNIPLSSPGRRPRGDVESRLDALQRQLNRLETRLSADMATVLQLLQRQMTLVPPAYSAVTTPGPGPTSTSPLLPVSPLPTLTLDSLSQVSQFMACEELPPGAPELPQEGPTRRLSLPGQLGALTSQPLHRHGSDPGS

SMILES	hERG current change (%, negative = inhibition) at 1uM [%]
COc1ccc(OC)c(CN2CCCCCC2)c1.O=C(O)C(=O)O	13.5
CCCCCN(C(=O)CCC(=O)OCC(=O)N1CCCCC1C)c1c(N)n(CCCC)c(=O)[nH]c1=O (stereo not shown)	11.5
CCOC(=O)c1ccc(NC(=O)Cn2nnc3ccccc32)cc1	2.4
CSc1nc(-c2ccccc2)cc(C)c1C#N	-7.47
CN(C)c1ccc(/C=N/n2c(-c3ccccc3Br)n[nH]c2=S)cc1	13.9
CC(=O)c1c(C)[nH]c(C(=O)OCc2cccc(C)c2)c1C	12.3
CC(C)(C)OC(=O)N1CCC[C@H]1c1nnc(SCc2ccccc2)o1	4.56
CCn1c(SCC(=O)N2CCOCC2)nnc1C(C)NC(=O)c1ccccc1 (stereo not shown)	4.59
Cn1c(=O)cc(NCCc2ccccc2)[nH]c1=O	-1.53
O=S(=O)(c1cccs1)N1CCN(c2ccc(O)cc2)CC1	-1.01
COc1cc(/C=N/NC(=O)CCC(=O)Nc2ccc(C)cc2)ccc1O	7.32
Br.Cc1ccc(S(=O)(=O)NN2Cc3ccccc3C2=N)cc1	7.96
Cc1ccc2[nH]c(=O)c(C(c3nnnn3CCc3ccccc3)N3CCOCC3)cc2c1 (stereo not shown)	8.41
CCCC1=NN(C(=O)Cc2ccc(OC)c(OC)c2)C(O)(C(F)(F)F)C1 (stereo not shown)	4.64
CCCc1nc2c(sc3nc4c(cc32)COC(C)(C)C4)c(=O)n1CCN(CC)CC	5.45
CCOC(=O)c1ccc(NC(=O)CSc2nnnn2C2CCCCC2)cc1	10.5
CC1=C(C(=O)N2CCCC(N3CCN(c4cccc(Cl)c4)CC3)C2)OCCO1 (stereo not shown)	28.6
CCOC(=O)C1CCCN(C(=O)c2ccc3c(c2)OCO3)C1 (stereo not shown)	-0.968
CCOc1cccc2cc(C(=O)NC(C)c3ccccc3)c(=N)oc12 (stereo not shown)	5.08
COc1ccc(N(CC(=O)N/N=C/c2cccc3c2OCCO3)S(=O)(=O)c2ccc(NC(C)=O)cc2)cc1	14.1
COc1ccccc1C1(O)CCN(CC(=O)Nc2nc(-c3ccccc3)cs2)CC1	-13.5
NC(=O)CN1C(=O)C(O)(CC(=O)/C=C\C=C\c2ccccc2)c2ccccc21 (stereo not shown)	-0.255
Cc1ccc(C)c(NC(=O)COC(=O)c2ccc3c(c2)OCCO3)c1	12.8

SMILES	hERG current change (%, negative = inhibition) at 1uM [%]
CCCCOc1ccc(C(=O)NCC(=O)N2CCN(C(=O)c3ccco3)CC2)cc1	-10.8
Cc1cc(NC(=O)CN2C(=O)N(C)C3(CCCCC3)C2=O)ccc1Br	10.1
CCOc1ccc(Cc2nc(N)nc(N)n2)cc1	2.98
Cc1ccc(NC(=O)c2cc(-c3cc(C)c(C)cc3O)n[nH]2)cc1C	-3.43
CCOC(=O)c1c(C)[nH]c(-c2csc(C)n2)c1C	10.7
CCCC(=O)Nc1c(-c2ccccc2)c(=O)c(C)nn1-c1ccc(C)cc1	9.23
CCCS(=O)(=O)c1nc(S(=O)(=O)c2ccc(C)cc2)c(N2CCC3(CC2)OCCO3)s1	10.7
Cn1c(CSCCOc2ccccc2)n[nH]c1=S	13.2
CCCCc1nnc(NC(=O)C(=O)OCC)s1	21.4
COCCNC(=O)c1cccc(OC2CCN(Cc3cccc(C(C)=O)c3)CC2)c1	11.3
COc1ccc(CNC(=O)C2CCCN(S(=O)(=O)c3c(C)noc3/C=C/N(C)C)C2)cc1 (stereo not shown)	12.1
CC(C)(C)NC(=O)COC(=O)c1ccccc1NC(=O)c1ccco1	-2.87
Cc1c(NC(=O)CSc2ccccc2F)c(=O)n(-c2ccccc2)n1C	6.15
Cc1cccc2c1N(C)C(=O)C2=O	18.6
COc1ccc(S(=O)(=O)NCC2CCC(C(=O)O)CC2)cc1 (stereo not shown)	13.4
Cc1cc(C)cc(NC(=O)CSc2nc(N)c(NC(=O)c3ccc(Br)o3)c(=O)[nH]2)c1	12.9
Cn1ncc2c(NNC(=O)Cc3ccccc3)ncnc21	14.5
CCc1ccccc1NC(=O)N1CCC(NC(=O)C(Cc2ccc(OC)c(OC)c2)NC(C)=O)CC1 (stereo not shown)	9.88
COC(=O)C1(NC(=O)NC2CCCCC2)CCCCC1	15.8
COC(=O)c1c(NC(=O)COC(=O)CC(NC(C)=O)c2ccccc2)sc(C)c1C (stereo not shown)	15.6
NC(=S)Nc1ncc(CCN2CCOCC2)c(-c2ccc(F)cc2)n1	-7.43
COC(=O)c1sccc1NC(=O)CC1NCCNC1=O (stereo not shown)	10
Cc1cc(C(=O)N/N=C/c2cc(Br)ccc2OC(=O)c2ccccc2)n[nH]1	6.23

Source: article PMC4336329 (PLoS ONE, 2015)
